Assay [1] has as its target T1, Trx-H6-RssB, wild type (E. coli, UniProt P0AEV1 1-337).
T1 sequence (looked up): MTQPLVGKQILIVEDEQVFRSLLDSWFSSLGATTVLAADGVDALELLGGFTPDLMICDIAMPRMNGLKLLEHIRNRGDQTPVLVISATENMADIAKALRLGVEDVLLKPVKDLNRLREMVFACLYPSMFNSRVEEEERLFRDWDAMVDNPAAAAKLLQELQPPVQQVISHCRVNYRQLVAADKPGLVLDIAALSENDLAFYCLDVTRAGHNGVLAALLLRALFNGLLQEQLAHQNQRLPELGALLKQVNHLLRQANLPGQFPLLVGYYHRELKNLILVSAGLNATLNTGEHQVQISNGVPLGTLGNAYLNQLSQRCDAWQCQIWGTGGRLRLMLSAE
In words: cell-based or functional assay.

For assay [2], the target named is T2, Trx-RssB D58E (E. coli, UniProt P0AEV1 1-337, D58E).
T2 construct: RssB, E. coli, full length with D58E; also called phospho-mimic mutant D58E; source: purified recombinant protein; not shown: Trx (thioredoxin), N-terminal, kept; His6, internal (between Trx and RssB, from the name Trx-H6-RssB), kept
T2 sequence (looked up): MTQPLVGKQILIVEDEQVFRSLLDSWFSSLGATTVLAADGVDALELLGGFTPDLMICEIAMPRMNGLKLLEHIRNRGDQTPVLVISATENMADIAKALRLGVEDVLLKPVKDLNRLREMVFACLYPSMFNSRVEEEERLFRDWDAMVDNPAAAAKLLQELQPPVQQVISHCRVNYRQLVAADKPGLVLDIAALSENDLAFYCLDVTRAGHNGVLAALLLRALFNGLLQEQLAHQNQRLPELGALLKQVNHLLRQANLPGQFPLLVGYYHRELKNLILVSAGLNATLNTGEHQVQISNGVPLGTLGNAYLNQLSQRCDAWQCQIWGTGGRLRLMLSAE
Kind of assay: pull-down; Trx-RssB (wild type or mutant) immobilised on Ni-NTA agarose, untagged σS added, in the absence of AcP (Figure 6a,b). The conditions noted are these: both partners purified.

Assay [3] concerns the target T3, Trx-RssB_(RE/AA) (E. coli, UniProt P0AEV1 1-337, RE/AA).
T3 construct: RssB, E. coli, full length; the charged residues RE central to the 116-LREM-119 motif replaced by alanine; With AcP phosphorylated at Asp58; source: purified recombinant protein; not shown: Trx (thioredoxin), N-terminal, kept; His6, internal (between Trx and RssB, from the name Trx-H6-RssB), kept
T3 sequence (looked up): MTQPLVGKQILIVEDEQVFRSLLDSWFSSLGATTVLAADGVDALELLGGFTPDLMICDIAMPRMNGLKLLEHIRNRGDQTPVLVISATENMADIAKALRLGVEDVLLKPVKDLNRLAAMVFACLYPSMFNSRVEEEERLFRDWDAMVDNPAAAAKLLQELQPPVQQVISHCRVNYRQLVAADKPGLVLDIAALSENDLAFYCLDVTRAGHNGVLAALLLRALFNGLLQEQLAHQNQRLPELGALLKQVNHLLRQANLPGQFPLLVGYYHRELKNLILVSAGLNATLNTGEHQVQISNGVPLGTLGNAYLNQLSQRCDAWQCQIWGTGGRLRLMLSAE
Kind of assay: pull-down; Trx-RssB (wild type or mutant) immobilised on Ni-NTA agarose, untagged σS added, in the presence of AcP (Figures 6a,b and 8b). The conditions noted are these: both partners purified.

Assay [4] addresses T4, Trx-RssB_(R117A) (E. coli, UniProt P0AEV1 1-337, R117A).
T4 construct: RssB, E. coli, full length with R117A; With AcP phosphorylated at Asp58; Used as the Trx-RssB of the SEC-SAXS experiments; source: purified recombinant protein; not shown: Trx (thioredoxin), N-terminal, kept; His6, internal (between Trx and RssB, from the name Trx-H6-RssB), kept
T4 sequence (looked up): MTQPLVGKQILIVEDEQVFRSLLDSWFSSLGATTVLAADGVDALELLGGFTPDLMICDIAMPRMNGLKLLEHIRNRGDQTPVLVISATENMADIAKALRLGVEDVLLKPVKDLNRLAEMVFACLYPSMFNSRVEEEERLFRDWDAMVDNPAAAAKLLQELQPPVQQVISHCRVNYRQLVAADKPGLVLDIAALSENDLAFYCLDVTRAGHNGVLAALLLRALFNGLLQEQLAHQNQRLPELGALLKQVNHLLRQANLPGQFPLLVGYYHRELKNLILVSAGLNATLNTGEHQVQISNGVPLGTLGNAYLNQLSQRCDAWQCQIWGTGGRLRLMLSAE
Described as above. The note with it: both partners purified.

In assay [5] the target is T1, Trx-H6-RssB, wild type. The description is as above. The conditions noted are these: both partners purified.

B1: ΔNσ^S, σ^S lacking the first 50 residues (domain or fragment)
chain: not shown
In the case of B1, the “half-life of wild type σS in RssB-mediated turnover by ClpXP with equimolar, 2-fold and 5-fold excess of ΔNσS (from ~2.5 min without)” value in assay [1] was ~20 min.

B2: σ^S (SigmaS), untagged, wild type (natural protein)
chain: not shown
notes: starvation sigma factor σS (RpoS), E. coli, wild type; theoretical MW 38 kDa as printed; The printed theoretical mass (38 kDa) fits the whole protein; also called σ^38; RpoS; source: Ub-fusion system, purified (IMAC, SEC)
Consider B2, for which, in assay [1], the “apparent Km for the turnover of σS by ClpXP with phosphorylated RssB (RssB~P, with AcP)” value was ~0.058 µM and the “apparent Km for the turnover of σS by ClpXP with unphosphorylated RssB (no AcP)” value was ~0.15 µM. In assay [2], the “binding relative to RssB~P” value is ~75%. The binding result in assay [3] was “binds”. The binding result in assay [4] is “binds”. The “fold increase of binding on phosphorylation of RssB (against unphosphorylated RssB)” value in assay [5] was ~3 fold.
